B-score data for eleven compounds are collected here from the supplement of paper PMC11283458.

The test system of assay [1] is Mef2d microexon dual Nano/Firefly luciferase splicing reporter in Neuro-2a cells. The assay is described as follows: B-score of Firefly/Nano luminescence ratio, V1 Mef2d microexon reporter (B-score (plate-normalised)); higher = more Mef2d microexon inclusion. Conditions: 24 h.
Assay [2] shares this test system. The assay is described as follows: B-score of Nano/Firefly luminescence ratio, V2 Mef2d microexon reporter (B-score (plate-normalised)); higher = more Mef2d microexon inclusion. Conditions: 24 h.

This is one part of the list. Many values rest on one well or one pass, so single values are uncertain.
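For B-score of Nano/Firefly luminescence ratio, V2 Mef2d microexon reporter in this document: compounds at 4 µM (PKI library 0.5 µM) on Dox-inducible N2A Flp-In cells with PEST-tagged luciferases, 384-well plates, B-score from per-plate median-polish residual over median absolute residual.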

With `CC[C@H](C)[C@H]1O[C@]2(CC[C@@H]1C)C[C@@H]1C[C@@H](CC=C(C)[C@@H](O[C@H]3C[C@H](OC)[C@@H](O[C@H]4C[C@H](OC)[C@@H](O)[C@H](C)O4)[C@H](C)O3)[C@@H](C)C=CC=C3CO[C@@H]4[C@H](O)C(C)=C[C@@H](C(=O)O1)[C@]34O)O2` [Ivermectin] (4 µM), the B-score in assay [1] stood at 9.67; in assay [2] it was 5.
The like results for `Cc1c(C(=O)NN2CCOCC2)nn(-c2ccc(Cl)cc2Cl)c1-c1ccc(I)cc1` (4 µM) were, in that order, 8.99 and 16.
In the case of `Cc1noc(C)c1C(=O)ON=C(N)c1ccc(C(F)(F)F)cc1` (4 µM), the values for the B-score in assay [1] and in assay [2] were 18 and 2.48, respectively.
For `Cc1cc(Nc2cc(N3CCN(C)CC3)nc(/C=C/c3ccccc3)n2)n[nH]1` (0.5 µM), in that order: 6.26 and 2.81.
The like results for `NC(=S)N/N=C/c1ccc(-c2cccc(Cl)c2Cl)o1` (4 µM) were, in that order, 8.9 and 15.2.
The like results for `COc1cc(/C=C/C(=O)N2CCC=CC2=O)cc(OC)c1OC` [Piperlongumine] (4 µM) were, in that order, -1.52 and -17.7.
Consider `CCC1CCc2c(sc(N)c2C#N)C1` (configuration not stated) (4 µM), for which the B-score in assay [1] is -8.99; in assay [2], -0.378.
With `O=C(Nc1ccccc1)Sc1cc(C(F)(F)F)cc(C(F)(F)F)c1` (4 µM), the figures for the B-score in assay [1] and in assay [2] were 16.6 and -0.422, respectively.
The like results for `O=[N+]([O-])c1ccc(Nc2ccc3c(c2)OCCO3)cc1C(F)(F)F` (4 µM) were, in that order, 3.67 and 6.52.
For the compound `CC1S(=O)C(C)S(=O)C(C)S1=O` (configuration not stated) (4 µM), the figures for the B-score in assay [1] and in assay [2] were -8.09 and -0.509, respectively.
The like results for `CCc1cc2c(cc1N1CCC(N3CCOCC3)CC1)C(C)(C)c1[nH]c3cc(C#N)ccc3c1C2=O` (0.5 µM) were, in that order, -4.29 and -4.69.
